# The campaign covered roughly 1,300 compounds. About 560 (43%) were called active. So high a share suggests a set chosen from earlier hits. Inconclusive means that the source gave no clear call. Such entries were picked first, then a sample of the others. Calls follow the shape of the dose curve; as a rule, active = well fitted inhibition curve with a large enough effect; inconclusive = small, poorly fitted or top-dose-only effect; inactive = flat fitted curve, though single readings scatter. Where the call is inconclusive, the potency comes from a doubtful curve fit.
# Target: Luciferin 4-monooxygenase (Photinus pyralis) (UniProt P08659)
# UniProt P08659, sequence (P08659 whole entry, looked up): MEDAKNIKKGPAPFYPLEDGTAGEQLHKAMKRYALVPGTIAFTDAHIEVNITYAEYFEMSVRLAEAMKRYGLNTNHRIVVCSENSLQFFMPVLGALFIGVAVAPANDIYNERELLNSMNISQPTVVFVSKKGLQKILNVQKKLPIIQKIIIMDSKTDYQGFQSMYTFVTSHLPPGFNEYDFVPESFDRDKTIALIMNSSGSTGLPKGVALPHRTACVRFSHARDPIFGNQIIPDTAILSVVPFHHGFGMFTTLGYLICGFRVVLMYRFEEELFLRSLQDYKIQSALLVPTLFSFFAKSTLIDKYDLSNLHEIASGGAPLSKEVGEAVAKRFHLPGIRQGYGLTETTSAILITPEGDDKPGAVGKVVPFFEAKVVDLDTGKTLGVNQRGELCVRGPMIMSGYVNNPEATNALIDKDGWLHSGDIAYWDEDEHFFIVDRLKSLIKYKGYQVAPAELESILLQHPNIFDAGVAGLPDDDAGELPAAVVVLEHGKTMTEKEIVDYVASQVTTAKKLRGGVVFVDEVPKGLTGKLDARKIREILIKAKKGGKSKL
# Test: Firefly luciferase (FLuc-C-HiBiT) enzymatic inhibition screen - Functional assay
# Conditions: purified FLuc-C-HiBiT enzyme, luciferin luminescence; series mostly up to 32.7 µM; activity change, negative = inhibition: at the top concentration
# Description: PI: James Inglese Ph.D. National Center for Advancing Translational Sciences (NCATS), National Institute of Health (NIH), Maryland Discovery and optimization of novel protein-binding ligands underlies many of the methods and applications of biology, drug discovery, clinical diagnostics, and environmental toxicology. Assays for detecting the interaction of, for example, a molecule with a macromolecular target also referred to here as the target of interest (TOI) is dependent on a compatible output technology. Depending on the nature and knowledge surrounding the TOI, whether a receptor, enzyme, regulatory subunit or scaffold, or a sequence-defined nucleic acid folded into a complex tertiary structure, assay strategies can vary widely. Here we exploit ligand-biased changes in the structural dynamics of the target protein to control reporter alpha complementation allowing a non-competitive, non-functional, non-separation measure of ligand-target interaction. […] Secondly, we show the specificity and sensitivity of the SDR for the Abelson tyrosine kinase (ABL1) compared to the serine/threonine protein kinase A, using an enriched chemical library of 128 compounds selected, in part, for activity annotated with ABL1 kinase activity using the Pharos database (3). References: (1) A. S. Dixon et al., NanoLuc Complementation Reporter Optimized for Accurate Measurement of Protein Interactions in Cells. ACS Chem Biol 11, 400-408 (2016). […] Chemistry & Biology, 19, 1060 - 1072 (2012). (3) K. J. Kelleher et al., Pharos 2023: an integrated resource for the understudied human proteome. Nucleic Acids Res 51, D1405-D1416 (2023).
# 1. Reagent. Dispense 4 uL FLuc-C-HiBiT enzyme-buffer solution per well at a final enzyme concentration of 10 nM with or without 10 uM ATP into columns 2-48 of white, solid bottom medium bind 1536-well plates (Greiner Bio-One) by BioRaptr 2. Dispense respective buffer without enzyme at 4 uL/well in column 1 of assay plates. 2. Compounds. Library compounds and PTC124 control added at 23 nL per well, transfer by Pin Tool. 3. Incubation. Incubate enzyme and compounds at room temperature for >30 min, protect from light. 4a. Reagent. (Functional assay) Add 3 uL of D-luciferin substrate at final (KM) concentration of 10 uM/well of assay plates for FLuc enzymatic assay, in the presence of ATP. 5. Incubation. Incubate enzyme and substrate or detection reagent at room temperature for 5-10 min, protect from light. 6a. Detector. Functional assay measured using CCD-based camera (ViewLux) with settings as follows: Exposure, 10 sec; Gain, High; Speed, Slow; Binning, 2X. REFERENCES: Inglese J, Shamu CE and Guy RK, Reporting data from high throughput screening of small molecule libraries, Nature Chemical Biology, 2007, 3(8): 438-441. doi.org/10.1038/nchembio0807-438.
# % is scaled to controls: 0 for no effect and ±100 for the full control effect; potency is read from the fitted curve at half-maximal effect; tags tell the direction and shape of the fitted curve.
# Also: nearly all actives have a fitted effect of over 70% in size.
Structure (SMILES),"activity change, negative = inhibition",Potency
Cc1ccc(C2=NC(c3ccccc3)=Nc3ccc(Cl)cc3N2)cc1,inactive: -9.03%,
COc1ccc(C(=O)Nc2cc(S(=O)(=O)c3ccc(Cl)cc3)c(O)c(C)c2C)cc1,inactive: -13.9%,
CCOc1cc(C(=O)Nc2ccc(-c3nc4ccccc4s3)cc2Cl)cc(OCC)c1OCC,,"inconclusive: 12.4 µM [inhibitor, partial curve]"
COc1cccc(CN2CCNc3cc(-c4ccnc(C)c4)ncc3C2)c1,,"inconclusive: 18 µM [inhibitor, partial curve]"
CSc1cccc(NC(=O)c2ccc3c(c2)N(C)C2CCCN2C3=O)c1 (stereo not given),,"inconclusive: 11.1 µM [inhibitor, partial curve, poor fit]"
COc1ccc(NC(=O)Cn2c(SCc3ccc(C)cc3)nc3cccnc32)cc1OC,,active: 0.7 µM
Cc1cc(-c2nc3ccccc3s2)ccc1NC(=O)c1cc(Cl)ccc1Cl,inactive: -5.24%,
c1ccc(Nc2cc3c(cn2)CN(CC2CCOC2)CCN3)cc1 (stereo not given),,"inconclusive: 20.2 µM [inhibitor, partial curve]"
COc1ccc(CN2CC(COc3ccccc3)C3(C2)CN(c2ccccc2)C3)cc1O (stereo not given),inactive: -16% [at 49.3 µM],
Cc1cccc(NC(=O)c2c(N)sc3c2CCC(C)C3)c1 (stereo not given),,"inconclusive: 9.89 µM [inhibitor, partial curve]"
COc1ccc(Nc2nc(-c3cccc(OC)c3)no2)cc1,,active: 7.85 µM
Cc1ccc(NC(=O)Nc2ccc(C)n(CC(=O)NCCC(C)C)c2=O)cc1,,active: 1.11 µM
CCC(CC)C(=O)Nc1cccc(-c2nc3ccccc3s2)c1,,"inconclusive: 15.7 µM [inhibitor, partial curve, poor fit]"
Cc1ccc(NC(=O)Nc2ccc(C)n(CC(=O)NC(C)c3cccnc3)c2=O)cc1 (stereo not given),,active: 1.57 µM
COc1ccc(CCNC(=O)C2CCCN(c3nc4c(C)cc(C)cc4s3)C2)cc1OC (stereo not given),,"inconclusive: 5.56 µM [inhibitor, partial curve, poor fit]"
COc1ccc(C)cc1NC(=O)C1CCN(C(=O)c2ncn3c2COC(c2ccc(F)cc2)C3)CC1 (stereo not given),,"inconclusive: 9.89 µM [inhibitor, partial curve]"
Cc1nnc(SCc2ccccc2)c2cc3sccc3n12,,"inconclusive: 14 µM [inhibitor, partial curve, poor fit]"
CNc1ccc2cc(-c3nc4ccc(C(=O)O)cc4s3)ccc2c1,,active: 0.007 µM
CCOc1cccc2cc(-c3nc4ccc(C(=O)O)cc4[nH]3)c(=O)oc12,,active: 0.157 µM
Cc1nn(-c2ccc(C(C)(C)C)cc2)c(C)c1[C@@H]1C=C[C@@H](NC(=O)COCC(=O)O)C1,,"inconclusive: 20.2 µM [inhibitor, partial curve]"
Cc1ccc(NC(=O)N2CCC(CCNC(=O)c3ccc(F)cc3)CC2)cc1F,,"inconclusive: 11.1 µM [inhibitor, partial curve]"
CCOc1ccc(-c2cc(CCCC(=O)NCCc3ccc(OC)c(OC)c3)no2)cc1,,"inconclusive: 9.89 µM [inhibitor, partial curve]"
COc1cccc(CN2CCc3nc(C(=O)Nc4nc(C)cs4)oc3CC2)c1,,"inconclusive: 18 µM [inhibitor, partial curve]"

Structure (SMILES),"activity change, negative = inhibition",Potency
Cc1ccc(-n2ncc3c(NC4CCCC4)ncnc32)cc1,,active: 0.624 µM
COc1ccc(-c2noc(-c3ccc(N4CCN(C)CC4)c([N+](=O)[O-])c3)n2)cc1,,"inconclusive: 15.7 µM [inhibitor, partial curve]"
CCc1ccc(CNC(=O)C2CCCN(c3nn4cc(-c5ccc(F)cc5)nc4s3)C2)cc1 (stereo not given),inactive: -19.7%,
Cc1ccc2nc(-c3ccc(NC(=O)C(F)(F)F)cc3)sc2c1,,active: 0.785 µM
CCN(CC)c1cc(CCC(=O)O)ccn1,,active: 1.4 µM
Nc1nn(-c2ccccc2)nc1C(=O)OCc1ccccc1,inactive: -12.9%,
COc1cccc(-c2cc3c(=O)n(CCNC(=O)C4CCN(C(C)=O)CC4)ccn3n2)c1,,"inconclusive: 12.4 µM [inhibitor, partial curve]"
Cc1[nH]cnc1CN1CCNc2cc(Nc3ccccc3)ncc2C1,,"inconclusive: 18 µM [inhibitor, partial curve]"
CN1c2cc(C(=O)Nc3ccccc3)ccc2C(=O)N2CCCCCC21 (stereo not given),,"inconclusive: 11.1 µM [inhibitor, partial curve]"
Cc1ccc(C(=O)Nc2cccc3cccnc23)cc1Cl,inactive: -13.8%,
COc1ccc(C(=O)Nc2cc(-c3nc4ccccc4s3)ccc2OC)cc1,,"inconclusive: 9.89 µM [inhibitor, partial curve]"
Cc1ccc(C(=O)NCCn2cccc2-c2nc(-c3ccc4c(c3)OCO4)no2)cn1,,"inconclusive: 11.1 µM [inhibitor, partial curve]"
CN1c2cc(C(=O)Nc3cccc(F)c3)ccc2C(=O)N2CCCCCC21 (stereo not given),,"inconclusive: 12.4 µM [inhibitor, partial curve]"
CCOC(=O)c1cc(-c2ccccc2)nn1Cc1ccccc1,inactive: -5.68%,
CCOc1ccc(/C=C/c2nc3ccccc3n2S(=O)(=O)c2cccc(Cl)c2)cc1,,active: 0.394 µM
c1ccc(COc2ccccc2-c2nc3ccccc3s2)cc1,,"inconclusive: 12.4 µM [inhibitor, partial curve]"
CCOc1ccc(C(=O)Nc2ccc(-c3nc4ccccc4s3)c(C)c2)cc1OCC,inactive: -10.3%,
COc1ccc(-c2cc3c(=O)n(CCNC(=O)Cc4cccs4)ccn3n2)cc1,,"inconclusive: 9.89 µM [inhibitor, partial curve]"
CN(C)c1ccc(NC(=O)c2ccc3c(c2)N(C)C2CCCCN2C3=O)cc1 (stereo not given),,"inconclusive: 11.1 µM [inhibitor, partial curve]"
Cc1c(NS(C)(=O)=O)cccc1-c1nc2ccccc2s1,,"inconclusive: 9.89 µM [inhibitor, partial curve]"
COc1ccc(-c2cc(N3CCCC(NC(=O)c4c[nH]c5ccccc45)C3)n[nH]2)cc1 (stereo not given),,"inconclusive: 11.1 µM [inhibitor, partial curve]"
CCOCC1(C)COc2ccc(C(=O)Nc3ccccc3)cc2N1 (stereo not given),,"inconclusive: 18 µM [inhibitor, partial curve]"

# Reference: PubChem BioAssay AID1963320 (National Center for Advancing Translational Sciences (NCATS), 2024)
